These are yes or no findings as the source states them, for the method shown. Binding seen in cells or lysates may run through a third protein. Some entries that bind do so weakly or less than the wild type.
Tests used:
Test in all cases: co-IP; endogenous proteins of U2OS lysate (50 mM Tris-HCl pH 7.4, 100 mM NaCl, 1 mM EDTA, 0.2% Triton X-100), 30 min on ice with Benzonase (90 U/ml); 1 mg extract with anti-BRCA1, anti-ADAR2 or anti-SETX antibody or control IgG at 4 °C, protein A Dynabeads, western blot; BRCA1 IP from cells irradiated (1 h after IR) or not
[1] = target: ADAR2 (human (endogenous in U2OS)) (UniProt P78563)
[2] = target: BRCA1 (human (endogenous in U2OS)) (UniProt P38398)
[3] = target: Senataxin (human (endogenous in U2OS)) (UniProt Q7Z333)

Protein sequences, listed by entry. Tags and fused reporters are not part of them.
UniProt P38398: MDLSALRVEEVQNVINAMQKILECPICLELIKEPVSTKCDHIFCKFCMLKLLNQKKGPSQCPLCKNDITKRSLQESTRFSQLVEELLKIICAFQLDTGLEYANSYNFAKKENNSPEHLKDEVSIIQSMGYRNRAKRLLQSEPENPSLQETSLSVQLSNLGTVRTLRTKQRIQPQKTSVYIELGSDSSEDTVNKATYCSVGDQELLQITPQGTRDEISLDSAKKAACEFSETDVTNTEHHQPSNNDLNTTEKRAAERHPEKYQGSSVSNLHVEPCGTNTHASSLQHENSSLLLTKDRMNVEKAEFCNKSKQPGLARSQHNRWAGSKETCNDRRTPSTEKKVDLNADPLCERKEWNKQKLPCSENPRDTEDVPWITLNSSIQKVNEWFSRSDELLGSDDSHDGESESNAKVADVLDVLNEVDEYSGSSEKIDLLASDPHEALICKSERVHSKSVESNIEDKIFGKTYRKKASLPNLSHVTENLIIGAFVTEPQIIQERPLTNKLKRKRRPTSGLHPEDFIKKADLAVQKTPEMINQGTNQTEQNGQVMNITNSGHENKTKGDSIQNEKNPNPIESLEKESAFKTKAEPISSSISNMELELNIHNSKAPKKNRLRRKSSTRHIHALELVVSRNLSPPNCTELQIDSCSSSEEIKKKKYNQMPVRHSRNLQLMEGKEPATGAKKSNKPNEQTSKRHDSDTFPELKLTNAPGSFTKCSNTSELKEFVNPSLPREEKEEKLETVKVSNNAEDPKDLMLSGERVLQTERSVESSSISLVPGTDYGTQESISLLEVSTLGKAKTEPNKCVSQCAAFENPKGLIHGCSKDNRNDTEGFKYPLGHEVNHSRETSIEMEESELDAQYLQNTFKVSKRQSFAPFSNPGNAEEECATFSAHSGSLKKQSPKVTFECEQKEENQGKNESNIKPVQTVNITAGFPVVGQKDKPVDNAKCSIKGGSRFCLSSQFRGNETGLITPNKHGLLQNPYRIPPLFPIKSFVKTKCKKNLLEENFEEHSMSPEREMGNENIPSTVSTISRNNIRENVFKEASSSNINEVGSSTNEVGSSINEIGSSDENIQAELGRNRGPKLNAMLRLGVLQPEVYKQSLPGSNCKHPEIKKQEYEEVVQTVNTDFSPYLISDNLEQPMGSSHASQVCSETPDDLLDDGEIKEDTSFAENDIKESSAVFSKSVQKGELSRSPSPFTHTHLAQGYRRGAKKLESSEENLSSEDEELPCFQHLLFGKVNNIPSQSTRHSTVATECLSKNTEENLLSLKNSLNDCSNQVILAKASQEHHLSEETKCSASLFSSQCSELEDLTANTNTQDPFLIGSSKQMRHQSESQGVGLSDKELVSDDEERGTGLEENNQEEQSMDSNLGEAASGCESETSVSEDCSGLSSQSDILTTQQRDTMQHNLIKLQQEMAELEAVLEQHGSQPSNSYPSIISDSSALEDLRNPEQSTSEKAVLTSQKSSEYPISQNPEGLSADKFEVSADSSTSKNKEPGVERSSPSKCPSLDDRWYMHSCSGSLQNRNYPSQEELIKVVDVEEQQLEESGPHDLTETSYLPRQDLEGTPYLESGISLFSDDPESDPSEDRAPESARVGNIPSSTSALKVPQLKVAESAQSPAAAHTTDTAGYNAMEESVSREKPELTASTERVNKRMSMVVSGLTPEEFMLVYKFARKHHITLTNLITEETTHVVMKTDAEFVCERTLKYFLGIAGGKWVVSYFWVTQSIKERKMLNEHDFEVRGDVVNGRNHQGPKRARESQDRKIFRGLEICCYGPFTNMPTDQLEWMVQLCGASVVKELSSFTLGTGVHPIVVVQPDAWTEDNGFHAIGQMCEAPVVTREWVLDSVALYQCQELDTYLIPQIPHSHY
UniProt Q7Z333: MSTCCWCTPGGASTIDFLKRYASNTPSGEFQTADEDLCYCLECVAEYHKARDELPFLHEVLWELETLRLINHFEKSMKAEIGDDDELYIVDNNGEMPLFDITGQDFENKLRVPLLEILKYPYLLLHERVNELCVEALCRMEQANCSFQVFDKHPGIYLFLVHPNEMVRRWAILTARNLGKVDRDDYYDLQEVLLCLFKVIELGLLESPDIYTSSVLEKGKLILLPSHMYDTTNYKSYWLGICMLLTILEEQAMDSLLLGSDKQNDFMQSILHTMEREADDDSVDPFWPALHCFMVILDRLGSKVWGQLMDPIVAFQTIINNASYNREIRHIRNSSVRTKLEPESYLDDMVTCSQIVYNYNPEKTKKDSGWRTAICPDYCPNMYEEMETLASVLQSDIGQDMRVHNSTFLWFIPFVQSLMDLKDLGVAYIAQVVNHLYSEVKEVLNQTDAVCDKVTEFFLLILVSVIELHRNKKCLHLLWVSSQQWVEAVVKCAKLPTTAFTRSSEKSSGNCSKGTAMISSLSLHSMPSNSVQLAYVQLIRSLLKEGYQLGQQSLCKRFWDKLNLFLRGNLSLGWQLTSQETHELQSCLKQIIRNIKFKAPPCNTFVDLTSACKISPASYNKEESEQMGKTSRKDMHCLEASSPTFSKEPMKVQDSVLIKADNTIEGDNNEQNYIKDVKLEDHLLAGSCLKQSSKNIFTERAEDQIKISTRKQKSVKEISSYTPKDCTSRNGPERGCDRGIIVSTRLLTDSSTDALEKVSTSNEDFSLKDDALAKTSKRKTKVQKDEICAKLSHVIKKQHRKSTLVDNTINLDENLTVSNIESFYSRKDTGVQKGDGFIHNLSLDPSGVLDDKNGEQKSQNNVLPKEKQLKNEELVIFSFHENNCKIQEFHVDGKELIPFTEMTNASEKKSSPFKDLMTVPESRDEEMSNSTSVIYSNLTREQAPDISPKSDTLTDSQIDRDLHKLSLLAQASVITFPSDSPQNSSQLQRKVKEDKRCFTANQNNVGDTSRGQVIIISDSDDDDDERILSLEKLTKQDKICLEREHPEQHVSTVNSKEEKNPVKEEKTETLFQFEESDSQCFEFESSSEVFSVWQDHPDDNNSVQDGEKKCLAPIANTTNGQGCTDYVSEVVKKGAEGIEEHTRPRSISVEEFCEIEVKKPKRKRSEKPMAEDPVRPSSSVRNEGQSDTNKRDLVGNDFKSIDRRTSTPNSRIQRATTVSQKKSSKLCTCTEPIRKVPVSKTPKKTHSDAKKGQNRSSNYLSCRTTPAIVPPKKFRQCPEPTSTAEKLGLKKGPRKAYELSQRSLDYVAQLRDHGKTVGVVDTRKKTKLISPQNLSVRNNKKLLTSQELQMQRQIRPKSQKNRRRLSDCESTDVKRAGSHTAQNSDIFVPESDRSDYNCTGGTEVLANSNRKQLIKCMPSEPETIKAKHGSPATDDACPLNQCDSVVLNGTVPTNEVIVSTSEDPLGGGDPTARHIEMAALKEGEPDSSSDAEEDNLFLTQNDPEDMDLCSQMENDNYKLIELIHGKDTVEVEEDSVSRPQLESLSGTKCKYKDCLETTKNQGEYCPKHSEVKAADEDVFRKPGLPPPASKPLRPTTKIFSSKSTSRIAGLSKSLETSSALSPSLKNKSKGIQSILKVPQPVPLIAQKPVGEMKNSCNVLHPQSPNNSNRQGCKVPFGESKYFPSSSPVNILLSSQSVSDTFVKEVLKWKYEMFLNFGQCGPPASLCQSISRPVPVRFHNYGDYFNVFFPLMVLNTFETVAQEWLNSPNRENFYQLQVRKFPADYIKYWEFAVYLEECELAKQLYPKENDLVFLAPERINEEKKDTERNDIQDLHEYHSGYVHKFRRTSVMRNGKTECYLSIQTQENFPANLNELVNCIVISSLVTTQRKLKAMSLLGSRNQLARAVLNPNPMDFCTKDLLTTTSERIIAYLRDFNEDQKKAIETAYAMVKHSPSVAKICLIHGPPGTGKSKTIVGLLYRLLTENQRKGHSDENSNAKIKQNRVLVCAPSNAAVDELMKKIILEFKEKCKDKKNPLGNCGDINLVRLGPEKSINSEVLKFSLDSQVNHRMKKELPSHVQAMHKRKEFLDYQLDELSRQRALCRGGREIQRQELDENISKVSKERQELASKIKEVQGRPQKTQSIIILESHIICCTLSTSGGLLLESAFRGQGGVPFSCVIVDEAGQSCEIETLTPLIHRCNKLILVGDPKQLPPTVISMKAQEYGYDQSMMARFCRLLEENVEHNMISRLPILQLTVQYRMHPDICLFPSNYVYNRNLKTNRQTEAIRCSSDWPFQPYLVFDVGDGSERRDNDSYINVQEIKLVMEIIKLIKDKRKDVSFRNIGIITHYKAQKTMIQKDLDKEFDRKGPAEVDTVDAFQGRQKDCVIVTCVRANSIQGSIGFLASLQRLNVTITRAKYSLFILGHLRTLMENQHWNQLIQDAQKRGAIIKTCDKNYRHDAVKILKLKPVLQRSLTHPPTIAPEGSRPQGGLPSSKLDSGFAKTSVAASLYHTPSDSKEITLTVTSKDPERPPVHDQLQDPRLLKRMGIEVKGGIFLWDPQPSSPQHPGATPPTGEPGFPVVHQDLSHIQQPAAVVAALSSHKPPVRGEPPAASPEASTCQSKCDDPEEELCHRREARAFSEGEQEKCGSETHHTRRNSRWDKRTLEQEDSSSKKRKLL
UniProt P13010: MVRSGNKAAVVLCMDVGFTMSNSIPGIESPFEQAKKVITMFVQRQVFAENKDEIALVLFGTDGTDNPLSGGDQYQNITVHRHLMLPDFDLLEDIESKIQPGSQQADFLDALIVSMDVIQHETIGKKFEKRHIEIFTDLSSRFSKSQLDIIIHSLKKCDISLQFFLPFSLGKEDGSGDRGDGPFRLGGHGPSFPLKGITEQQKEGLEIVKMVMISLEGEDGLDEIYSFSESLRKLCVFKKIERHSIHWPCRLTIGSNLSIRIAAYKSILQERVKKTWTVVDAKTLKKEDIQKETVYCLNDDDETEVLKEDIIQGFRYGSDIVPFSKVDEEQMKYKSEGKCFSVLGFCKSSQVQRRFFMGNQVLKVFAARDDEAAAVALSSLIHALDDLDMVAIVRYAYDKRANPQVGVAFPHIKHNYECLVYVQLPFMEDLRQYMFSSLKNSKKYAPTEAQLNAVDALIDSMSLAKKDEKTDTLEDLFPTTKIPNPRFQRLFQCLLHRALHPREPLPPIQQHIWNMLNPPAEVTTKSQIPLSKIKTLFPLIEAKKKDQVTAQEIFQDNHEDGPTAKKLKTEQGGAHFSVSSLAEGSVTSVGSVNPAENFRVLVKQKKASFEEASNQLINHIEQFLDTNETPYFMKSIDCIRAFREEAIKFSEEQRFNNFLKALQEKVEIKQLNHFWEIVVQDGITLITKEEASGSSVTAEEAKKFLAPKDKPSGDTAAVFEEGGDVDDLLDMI

binding [1] | binding [2] | Molecule | binding [3]
binds | binds | Senataxin (from UniProt Q7Z333 1-2677) (enzyme) | 
 | binds | ADAR1 (enzyme, UniProt P55265 1-1226) MNPRQGYSLSGYYTHPFQGYEHRQLRYQQPGPGSSPSSFLLKQIEFLKGQLPEAPVIGKQTPSLPPSLPGLRPRFPVLLASSTRGRQVDIRGVPRGVHLRSQGLQRGFQHPSPRGRSLPQRGVDCLSSHFQELSIYQDQEQRILKFLEELGEGKATTAHDLSGKLGTPKKEINRVLYSLAKKGKLQKEAGTPPLWKIAVSTQAWNQHSGVVRPDGHSQGAPNSDPSLEPEDRNSTSVSEDLLEPFIAVSAQAWNQHSGVVRPDSHSQGSPNSDPGLEPEDSNSTSALEDPLEFLDMAEIKEKICDYLFNVSDSSALNLAKNIGLTKARDINAVLIDMERQGDVYRQGTTPPIWHLTDKKRERMQIKRNTNSVPETAPAAIPETKRNAEFLTCNIPTSNASNNMVTTEKVENGQEPVIKLENRQEARPEPARLKPPVHYNGPSKAGYVDFENGQWATDDIPDDLNSIRAAPGEFRAIMEMPSFYSHGLPRCSPYKKLTECQLKNPISGLLEYAQFASQTCEFNMIEQSGPPHEPRFKFQVVINGREFPPAEAGSKKVAKQDAAMKAMTILLEEAKAKDSGKSEESSHYSTEKESEKTAESQTPTPSATSFFSGKSPVTTLLECMHKLGNSCEFRLLSKEGPAHEPKFQYCVAVGAQTFPSVSAPSKKVAKQMAAEEAMKALHGEATNSMASDNQPEGMISESLDNLESMMPNKVRKIGELVRYLNTNPVGGLLEYARSHGFAAEFKLVDQSGPPHEPKFVYQAKVGGRWFPAVCAHSKKQGKQEAADAALRVLIGENEKAERMGFTEVTPVTGASLRRTMLLLSRSPEAQPKTLPLTGSTFHDQIAMLSHRCFNTLTNSFQPSLLGRKILAAIIMKKDSEDMGVVVSLGTGNRCVKGDSLSLKGETVNDCHAEIISRRGFIRFLYSELMKYNSQTAKDSIFEPAKGGEKLQIKKTVSFHLYISTAPCGDGALFDKSCSDRAMESTESRHYPVFENPKQGKLRTKVENGEGTIPVESSDIVPTWDGIRLGERLRTMSCSDKILRWNVLGLQGALLTHFLQPIYLKSVTLGYLFSQGHLTRAICCRVTRDGSAFEDGLRHPFIVNHPKVGRVSIYDSKRQSGKTKETSVNWCLADGYDLEILDGTRGTVDGPRNELSRVSKKNIFLLFKKLCSFRYRRDLLRLSYGEAKKAARDYETAKNYFKKGLKDMGYGNWISKPQEEKNFYLCPV | 

The next lines start with the molecule.

Molecule | binding [1] | binding [2] | binding [3]
Ku80 (from UniProt P13010 1-732) | no binding |  | 
ADAR2 (from UniProt P78563 1-741) (enzyme) |  | binds | binds
